The whole screen tested about 71,000 compounds, of which about 1,800 (2.5%) were called active. The shares of active, inactive and inconclusive entries below differ from those in the screen. Calls come from the whole dose curve; as a rule, active = well fitted activation curve with a large enough effect in the signal ratio, with a control signal flat (not every such curve was filed as active); inconclusive = small, poorly fitted or top-dose-only effect, or effect the other way, or a change in a side signal; inactive = flat fitted curve, though single readings scatter; the % refers to the signal ratio. A potency beside an inconclusive call is a rough fit, not a confirmed value.
Assay: Cell signaling CRE-BLA (Fsk stim); for activity change, negative = inhibition: % of control where 0% means no effect
Conditions: CHO CRE-bla reporter (cAMP response element driving beta-lactamase), forskolin EC10, beta-lactamase ratio; activity change, negative = inhibition: at 38.2 µM (top of the series) unless noted
Outline: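 CRE-bla CHO cells stimulated with EC10 NKH 477 (water-soluble forskolin) and compound titrations, 3 h at 37C; beta-lactamase read with CCF4 after 2 h at room temperature. Activity from 460/530 nm emission ratio, AC50 values for positive or negative modulation.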
Potency is the fitted concentration of half-maximal effect; tags give direction and shape of the fitted curve.

SMILES	activity change, negative = inhibition	Potency
CC1(C)Cc2c(c(=S)nc(-c3ccccc3)n2CCN2CCOCC2)CO1	inactive: 7.04%	
CCSc1nnc(NC(=O)c2ccco2)s1		inconclusive: 0.02 µM [rising, full curve, poor fit]
CS(=O)(=O)Nc1ccc(N2CCCCC2)c(Cl)c1	inactive: 6.05%	
O=C(NCc1ccccc1)N1CCN(c2ccccc2F)CC1	inconclusive: -19.2%	
CCOC(=O)/C=c1\s/c(=C\c2ccccc2OC)c(=O)n1CC(=O)N1CCOCC1		active: 2.51 µM
CS(=O)(=O)Nc1cccc(-c2nc(NC3CC3)c3ccccc3n2)c1		inconclusive: 12.6 µM [rising, partial curve]
Cc1nn(-c2ccccc2)c(Cl)c1C1C(C#N)=C(N)OC2=C1C(=O)CCC2 (centres undefined)	inactive: -13.8%	
CCn1cc(C(=O)NCC2CCCO2)c(=O)c2cc(S(=O)(=O)N3CCCCCC3)ccc21 (centres undefined)	inconclusive: 1.99%	
COCCn1c(NCc2ccccc2)nc2c1c(=O)[nH]c(=O)n2C	inactive: 11.9%	
COc1ccc2nc(NC(=O)c3cccc(OCc4c(C)noc4C)c3)sc2c1		inconclusive: 15.8 µM [rising, single point]
CCc1ccc(NC(=O)c2cc(C(C)C)on2)cc1	inconclusive: 7.82%	
CCc1c(C)sc(NC(=O)CC#N)c1C#N		inconclusive: 10 µM [rising, partial curve]
COc1ccc(-c2nc(NC(=O)CSc3nnc(C)s3)ns2)cc1	inconclusive: -24.8%	
Cc1nn(C)c(C)c1NC(=O)CSc1nc(-c2ccccc2F)nc2c1cnn2-c1ccccc1		inconclusive: 5.01 µM [rising, single point]
O=C(C1CCN(S(=O)(=O)c2cccs2)CC1)N1CCCCCC1	inconclusive: 24.3%	
CCOC(=O)N1CCN(c2ncnc3nc[nH]c23)CC1	inactive: 26.4%	
CCCC[P+](CCCC)(CCCC)Cc1ccc(NC(=O)[C@@H](Cc2ccc3ccccc3c2)NC(=NC2CCCCC2)NC2CCCCC2)cc1	inconclusive: -27.1%	
CC(=O)CCS(=O)(=O)c1ccc(C)c(C)c1	inconclusive: -17.5%	
CN(C)c1ccc2c(c1)OC(N)=C(C#N)C2c1cccc(F)c1 (centres undefined)		inconclusive: 0.398 µM [rising, full curve, poor fit]
O=C1C2C3C=CC(C3)C2C(=O)N1Cc1ccccc1 (centres undefined)		active: 1 µM

SMILES	activity change, negative = inhibition	Potency
Cc1nn(C)cc1CNC(=O)C1C2CCC(O2)C1C(=O)O (centres undefined)		inconclusive: 7.94 µM [rising, single point]
CCc1ccc2[nH]c(=O)c(CN(CCCN3CCOCC3)C(=O)Nc3ccccc3)cc2c1	inconclusive: 26.8%	
Cc1ccc(C)c(NC(=O)CNS(=O)(=O)c2ccccc2)c1	inactive: -4.27%	
CN1CCN(CCCN2c3ccccc3Sc3ccc(S(=O)(=O)N(C)C)cc32)CC1	inconclusive: 25.6% [at 17.1 µM]	
COc1ccccc1CNC(=O)c1cc2sccc2n1C	inactive: -0.803%	
Cn1c(=O)c2c(nc(CN3CCN(c4ccccc4)CC3)n2Cc2c(F)cccc2Cl)n(C)c1=O	inconclusive: 14.3%	
CC1(NC[C@@H](O)COc2cccc3[nH]ccc23)CCC(C(C)(C)NC(=O)CBr)CC1 (some centres undefined)	inactive: -15.3%	
CCC(=O)n1nc(NCc2ccc(OC)c(OC)c2)nc1NCc1ccc(OC)c(OC)c1		inconclusive: 3.98 µM [rising, partial curve]
CCOC(=O)N1CCC(N(CCOC)C(=O)Nc2ccc(CC)cc2)CC1	inactive: -14.8%	
CCn1c(=O)cc(C(=O)OC)sc1=Nc1ccc(F)c(F)c1		inconclusive: 25.1 µM [falling, single point]
N#CC(C(=O)NCCc1ccccc1)c1nc2ccccc2nc1N1CCOCC1 (centres undefined)		inconclusive: 25.1 µM [falling, single point]
Cc1cnc(C(=O)Nc2ccccc2C(=O)N2CCOCC2)cn1	inconclusive: 2.2%	
O=C(Nc1nnc(-c2ccccc2Cl)o1)c1ccco1	inactive: 18.4%	
Cc1nc(N2CCCCC2)c2sc(=S)n(C)c2n1		inconclusive: 2 µM [rising, partial curve]
COc1ccc2[nH]c(=O)c(CN(C(C)=O)C3CCCCC3)cc2c1		inconclusive: 12.6 µM [rising, partial curve]
N=c1c2c3c(sc2nc2n1CCCCC2)CCCCC3		inconclusive: 3.16 µM [rising, single point]
CCOC(=O)c1c(NC(=O)c2nn(CC)cc2Br)sc(C)c1C		active: 3.16 µM
Cc1cccc(CN2CCN(CC(=O)NCCCN3CCCC3=O)C2=O)c1	inconclusive: -6.89%	
COc1ccc(C(=O)N2CCC3(CCN(Cc4cc(C(F)(F)F)cc(C(F)(F)F)c4)CC3)CC2)cc1	inactive: 3.03%	

From PubChem BioAssay AID662 (National Center for Advancing Translational Sciences (NCATS), 2007)
